# The whole screen tested about 270,000 compounds, of which about 5,800 (2.1%) were called active. Inconclusive means that the source gave no clear call. Such entries were picked first, then a sample of the others. Calls follow the shape of the dose curve; as a rule, active = well fitted inhibition curve with a large enough effect; inconclusive = small, poorly fitted or top-dose-only effect; inactive = flat fitted curve, though single readings scatter. Potencies of inconclusive entries are doubtful fits and often do not repeat.
# Biological target: Microtubule-associated protein tau (Homo sapiens) (UniProt P10636)
# Experiment: qHTS for Inhibitors of Tau Fibril Formation, Thioflavin T Binding; also: nearly all actives have a fitted effect of over 55% in size
# Conditions: recombinant tau K18 P301L (four-repeat tau fragment), heparin-induced fibrillization, ThT fluorescence; series mostly up to 57.4 µM; activity, negative = inhibition: at the top concentration
# Outline: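 Heparin-induced fibrillization of the P301L-mutant K18 repeat-domain fragment of human tau was followed by ThT binding in quantitative high-throughput format.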
# % is scaled to controls: 0 for no effect and ±100 for the full control effect; potency is read from the fitted curve at half-maximal effect; tags tell the direction and shape of the fitted curve.
# UniProt P10636, sequence (P10636 whole entry, looked up): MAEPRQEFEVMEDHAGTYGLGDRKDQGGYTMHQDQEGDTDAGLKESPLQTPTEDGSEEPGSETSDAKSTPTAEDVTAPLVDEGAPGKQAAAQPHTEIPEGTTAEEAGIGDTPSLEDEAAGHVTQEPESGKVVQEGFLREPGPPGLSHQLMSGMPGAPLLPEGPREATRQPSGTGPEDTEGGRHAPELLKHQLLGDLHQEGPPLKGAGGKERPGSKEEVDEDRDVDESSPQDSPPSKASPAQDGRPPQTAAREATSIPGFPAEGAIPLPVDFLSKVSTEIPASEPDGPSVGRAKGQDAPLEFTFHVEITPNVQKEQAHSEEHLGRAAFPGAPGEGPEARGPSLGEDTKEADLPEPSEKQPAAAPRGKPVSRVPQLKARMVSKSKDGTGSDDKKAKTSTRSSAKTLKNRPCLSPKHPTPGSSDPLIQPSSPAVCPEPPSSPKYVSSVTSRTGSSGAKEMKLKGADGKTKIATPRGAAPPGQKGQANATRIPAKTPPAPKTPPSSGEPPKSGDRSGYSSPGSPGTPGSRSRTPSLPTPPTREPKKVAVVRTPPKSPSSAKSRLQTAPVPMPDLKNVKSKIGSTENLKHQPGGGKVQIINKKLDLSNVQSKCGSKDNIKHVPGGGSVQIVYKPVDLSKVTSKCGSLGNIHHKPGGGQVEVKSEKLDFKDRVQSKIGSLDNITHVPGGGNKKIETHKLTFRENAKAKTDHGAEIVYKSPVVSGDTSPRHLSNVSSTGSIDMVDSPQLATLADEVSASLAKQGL
SMILES,Potency,"activity, negative = inhibition"
Cc1c(CCOC(=O)CC23CC4CC(CC(C4)C2)C3)sc[n+]1CC(=O)c1ccccc1,"inconclusive: 20 µM [inhibitor, single point]",–
NC(=O)CC(NC(=O)Cc1ccc(Br)cc1)c1ccc(NCc2ccccn2)c([N+](=O)[O-])c1 (stereo not given),"inconclusive: 31.6 µM [inhibitor, single point]",–
S=C(NC1CCCCC1)N1CCc2ccccc2C1,–,inactive: -11.1%
Cc1cc(C=C2C(=O)c3ccccc3C2=O)c(C)n1C,active: 11.2 µM,–
O=C(O)c1ccccc1C(=O)Nc1n[nH]c(=S)s1,"inconclusive: 39.8 µM [inhibitor, single point]",–
CCCS(=O)(=O)N1CCC(C(=O)NCCCOC(C)C)CC1,"inconclusive: 7.08 µM [inhibitor, single point]",–
CC(=O)c1ccc(N=Nc2ccc(N)cc2)cc1,active: 0.562 µM,–
C=CC[C@@H]1C=C[C@@H](O/N=C\c2ccc(C(=O)N3[C@H](c4ccc(C)cc4)[C@@H](C)CC[C@H]3C(=O)OC)cc2)[C@@H](CO)O1,–,inactive: -16.4% [at 11.5 µM]
COc1ccc(N2C(=O)[C@@H]3[C@H](C2=O)[C@H](C(C)=O)N2c4ccccc4C=C[C@@H]32)cc1,"inconclusive: 28.2 µM [inhibitor, partial curve]",–
CCn1c(C(=O)NCc2ccc(C)cc2)cc2sc(Cl)cc21,–,inactive: -5.4%
COc1cc([N+](=O)[O-])cc(/C=N/NC(=O)c2ccc(NC(=O)c3ccc(C)cc3)cc2)c1O,active: 2 µM,–
CCc1nnc(SCC(=O)Nc2ccc(Cl)cc2F)c2cc3occc3n12,"inconclusive: 2.24 µM [inhibitor, full curve, poor fit]",–
CCOC(=O)c1c(NC(=O)CCCOc2ccc(C)cc2)sc2c1CCC(C)C2 (stereo not given),"inconclusive: 28.2 µM [inhibitor, single point]",–
CC(C)C(=O)N(c1cc2sc(=O)oc2c2ccccc12)S(=O)(=O)c1cccs1,active: 15.8 µM,–
Cn1c(=O)n(C)c2cc(NS(=O)(=O)c3ccc(C(C)(C)C)cc3)ccc21,–,inactive: -13.7%
O=C(Oc1ccc(N(C(=O)c2ccncc2)S(=O)(=O)c2ccc(F)cc2)cc1)c1ccncc1,"inconclusive: 14.1 µM [inhibitor, partial curve]",–
O=C(OCc1ccccn1)c1ccc(COc2ccc3ccccc3c2)o1,"inconclusive: 7.08 µM [inhibitor, partial curve]",–
COc1ccccc1NCC(=O)NNC(C)C(=O)Nc1cccc(Cl)c1 (stereo not given),–,inactive: -8.67%
CCC12CN3CC(CC)(CN(C1)C3c1cccc(OC)c1O)C2=O (stereo not given),–,inactive: 4.85%
COc1cc2c(cc1NC(=O)COc1ccc(Br)c(C)c1)oc1ccccc12,"inconclusive: 1.41 µM [inhibitor, full curve]",–
Cc1ccc2nc(NCc3ccccc3)[nH]c2c1,–,inactive: -11.8%
COc1ccc(-c2nc(O)c3cnccn23)cc1,"inconclusive: 25.1 µM [inhibitor, single point]",–
COC(=O)c1ccc(NC2c3ncccc3C(=O)N2Cc2cccs2)cc1 (stereo not given),–,inactive: -9.55%
Cc1cc(C)nc(N/N=C/c2cc(Br)ccc2O)n1,"inconclusive: 20 µM [inhibitor, partial curve]",–

SMILES,Potency,"activity, negative = inhibition"
COc1cc(NC(=S)Nc2cccnc2)cc(OC)c1OC,–,inactive: -4.32%
c1nc(NCCN2CCOCC2)c2cc(-c3ccc4c(c3)OCO4)ccc2n1,"inconclusive: 3.16 µM [inhibitor, single point]",–
COc1ccc(NC(=O)C2=NN(C3CCS(=O)(=O)C3)C(=O)CC2)cn1 (stereo not given),–,inactive: -3.52%
Cc1ccc(C(=O)N/C(=C/c2ccco2)C(=O)Nc2cccc(C)c2)cc1,"inconclusive: 39.8 µM [inhibitor, single point]",–
CCc1ccc(NC(=O)CC2C(=O)NCCN2C(=O)c2ccccc2OC)cc1 (stereo not given),–,inactive: -17.8%
Cc1nc(SCc2cc(=O)c3cccc(F)c3[nH]2)n[nH]1,–,inactive: 0.322%
COc1cc(/C=C2\CCCc3c2nc2ccccc2c3C(=O)O)cc(OC)c1O,"inconclusive: 20 µM [inhibitor, partial curve]",–
Oc1c(C=C2N=c3ccccc3=N2)sc(=S)n1-c1ccc2ccccc2c1,"inconclusive: 15.8 µM [inhibitor, partial curve, poor fit]",–
CCNC(=S)N(CCc1cccc(C)c1)Cc1cc2cc(OC)c(OC)cc2[nH]c1=O,"inconclusive: 39.8 µM [inhibitor, single point]",–
CCC1(CC)NC(=O)N(CC(=O)Nc2sc3c(c2C(N)=O)CCC3)C1=O,"inconclusive: 14.1 µM [inhibitor, partial curve]",–
O=C(c1ccc2c3c(cccc13)CC2)C1CCCN(Cc2ccc(OCCO)cc2)C1 (stereo not given),"inconclusive: 31.6 µM [inhibitor, partial curve]",–
O=C1C2CCCN2C(=O)N1CCCCN1CCN(CCO)CC1 (stereo not given),–,inactive: 3.08%
Cc1ccc(NC(=O)CCSc2nc(C)cc(C)n2)cc1,–,inactive: -16.7%
COc1ccc(NC(=O)CN2CCN(c3nc(-c4cccc(OC)c4)cs3)CC2)cc1,"inconclusive: 2.51 µM [inhibitor, partial curve]",–
O=C(NCc1ccco1)c1c(F)cccc1Cl,–,inactive: 7.22%
O/N=C\c1ccccc1Oc1ccc(F)cc1,–,inactive: 2.82%
CC(CCc1ccccc1)NC(=O)CNC(=S)N(Cc1cccs1)C1CCCC1 (stereo not given),–,inactive: -17%
CCOc1ccccc1NC(=O)Nc1ccc2nc(N3CCN(C)CC3)cc(C)c2c1,active: 14.1 µM,–
O=C(O)CCCC(=O)Nc1ccc(C(=O)N2CCCCC2)cc1,–,inactive: 2.89%
CCN(CC)c1ccc(NC(=O)CN(C)S(=O)(=O)c2cccc3nsnc23)c(C)c1,"inconclusive: 28.2 µM [inhibitor, single point]",–
COc1cc(-c2cc(=O)c3c(O)c(OC)c(OC)c(O)c3o2)ccc1O,"inconclusive: 4.47 µM [inhibitor, single point]",–
O=C(c1ccc(=O)oc1)N1CCC(C(O)(c2ccccc2)c2ccccc2)CC1,"inconclusive: 3.16 µM [inhibitor, partial curve]",–
COC(=O)c1c(C)[nH]c(C)c1-c1ccc([N+](=O)[O-])cc1,"inconclusive: 17.8 µM [inhibitor, partial curve]",–
Cc1cccc(NC(=O)COc2ccc(/C=C\c3[nH]c(=O)[nH]c(=O)c3[N+](=O)[O-])cc2)c1,active: 10 µM,–

SMILES,Potency,"activity, negative = inhibition"
O=C1c2ccccc2C(=O)N1Cc1nn2c(-c3ccc(Cl)cc3)nnc2s1,–,inactive: -4.19%
Cc1cc2cc(CNC(=O)c3ccc(C)c([N+](=O)[O-])c3)ccc2[nH]1,"inconclusive: 12.6 µM [inhibitor, partial curve, poor fit]",–
CCOC(=O)c1[nH]c2ccccc2c1NC(=S)Nc1cc(C)ccc1C,"inconclusive: 22.4 µM [inhibitor, partial curve]",–
O=C(C/C=N/OCc1ccc(Cl)cc1)c1cnc(-c2ccccc2)s1,"inconclusive: 7.94 µM [inhibitor, partial curve]",–
CCOc1ccccc1C(=O)Nc1ccccc1-c1ccccc1,–,inactive: -12.7%
Cc1ccc(NC(=O)c2cc3nc(C)cc(C)n3n2)cc1,"inconclusive: 25.1 µM [inhibitor, single point]",–
CC(C)[C@@H](CC(=O)N[C@@H]1CCNC[C@H]1C(=O)N[C@H](CC(=O)N[C@@H](CCC(=O)O)CC(=O)O)Cc1ccccc1)NC(=O)C[C@H](Cc1c[nH]c2ccccc12)NC(=O)[C@@H]1CNCC[C@H]1N,–,inactive: -0.177%
COc1ccccc1C(=O)Nc1cccc(OCc2cc(=O)n3c(C)csc3n2)c1,"inconclusive: 2.24 µM [inhibitor, partial curve, poor fit]",–
O=S(=O)(c1cc(Br)c(Br)s1)N1CCN(c2ccccc2)CC1,"inconclusive: 39.8 µM [inhibitor, single point]",–
CCc1cc(-c2n[nH]c(=S)n2N)n(C)n1,–,inactive: 3.05%
CCCCN(CC)C(=S)Nc1ccc2nc(N3CCN(C)CC3)cc(C)c2c1,"inconclusive: 31.6 µM [inhibitor, partial curve]",–
Cc1ccc(NC(=O)NC2CCN(CC(=O)Nc3nccs3)CC2)cc1,–,inactive: -3.03%
S=c1nc(-c2ccccc2)oc2c1CCCC2,"inconclusive: 22.4 µM [inhibitor, partial curve, poor fit]",–
O=S(=O)(c1cccc(-c2csc(N/N=C/c3ccco3)n2)c1)N1CCOCC1,active: 14.1 µM,–
CCOc1ccc(NC(=O)CCc2nc3cccnc3n2Cc2ccc(OC)cc2)cc1,–,inactive: -1.53%
Cc1nc2c(C(=O)NCc3ccccc3Cl)c[nH]n2c(=O)c1Cl,"inconclusive: 35.5 µM [inhibitor, partial curve, poor fit]",–
C/C(CCc1ccccc1)=N\NC(=O)COc1ccccc1C,"inconclusive: 25.1 µM [inhibitor, single point]",–
CCC(C)/C=C/C1=CC2=C(Cl)C(=O)C3(C)OC(=O)C(C(=O)C(C)C(C)O)C3C2=CO1 (stereo not given),"inconclusive: 12.6 µM [inhibitor, single point]",–
Cc1ccc(-c2nnc(N3CCN(C(=O)COc4cccc(C)c4)CC3)c3ccccc23)cc1,"inconclusive: 2.24 µM [inhibitor, partial curve]",–
CC(C)Cc1nnc(NC(=O)CCC(=O)N2CCN(c3ccccn3)CC2)s1,"inconclusive: 3.16 µM [inhibitor, partial curve]",–
Cc1cc(C)cc(NC(=O)Cn2cc(C(=O)c3ccncc3)c(=O)c3cc(C)c(C)cc32)c1,"inconclusive: 3.98 µM [inhibitor, partial curve]",–
Cc1cn2c(N)c(C=C3C=C(Cl)C(=O)C(Cl)=C3)c(=O)nc2s1,"inconclusive: 22.4 µM [inhibitor, single point]",–

# — PubChem BioAssay AID1460 (National Center for Advancing Translational Sciences (NCATS), 2008)
